Source: US20030099944A1, “Combination therapy involving drugs which target cellular proteins and drugs which target pathogen-encoded proteins” (priority 1998, published 2003)

How the values were obtained:
HSV-1, strain KOS = experiment: HSV-induced stromal keratitis in C.AL.20 mice, intramuscular treatment; conditions: days 7 to 11
[1] = tested on: HSV-1 ICP0, ICP4, ICP8, TK and gC transcripts; experiment: RNase protection assay of viral transcripts, infected Vero cells; conditions: 100 μM Rosco added immediately after adsorption

CC[C@H](CO)Nc1nc(NCc2ccccc2)c2ncn(C(C)C)c2n1 [Rosco, Roscovitine]
average loss of original body weight at the peak of weight loss (HSV-1, strain KOS): 4.6%
accumulation of HSV immediate-early and early transcripts [1]: efficiently inhibited
